{"source": "the supplement of paper PMC6828730", "note": "This is one part of the list. Single values are uncertain, as repeats are few or missing."}
{"tested_on": "hiPSC-derived cardiomyocytes", "experiment": "time to death of most cells in well after compound addition (days); higher = less cardiotoxic; extreme values may be limits of the assay", "conditions": "screen: 4; 10 µM"}
{"smiles": "O=c1c(O)c(-c2ccc(O)c(O)c2)oc2cc(O)cc(O)c12", "note": "[Quercetin]", "time to death of most cells in well": "> 7"}
{"smiles": "N#C/C(=C(/N)Sc1ccc(N)cc1)c1ccccc1C(F)(F)F", "time to death of most cells in well": "> 7"}
{"smiles": "CN1CCN(Cc2ccc(-c3cnc4[nH]cc(-c5ccc6[nH]ccc6c5)c4c3)cc2)CC1", "time to death of most cells in well": 2}
{"smiles": "Cc1ccc(C(=O)Nc2ccc(CN3CCN(C)CC3)c(C(F)(F)F)c2)cc1C#Cc1cnc2[nH]ncc2c1", "note": "[GZD824 Dimesylate]", "time to death of most cells in well": 1}
{"smiles": "C=CC(=O)Nc1ccc2ncnc(Nc3ccc(OCc4cccc(F)c4)c(Cl)c3)c2c1", "time to death of most cells in well": "> 7"}
{"smiles": "C=CC(=O)N1CCC[C@@H](n2nc(-c3ccc(Oc4ccccc4)cc3)c3c(N)ncnc32)C1", "time to death of most cells in well": "> 7"}
{"smiles": "CCN(CC)CCCC(C)Nc1ccnc2cc(Cl)ccc12", "note": "(stereo not drawn) [Chloroquine Phosphate]", "time to death of most cells in well": "> 7"}
{"smiles": "C[C@]1(O)C[C@@H](c2nc(-c3ccc4ccc(-c5ccccc5)nc4c3)c3c(N)nccn32)C1", "note": "[Linsitinib (OSI-906)]", "time to death of most cells in well": "> 7"}
{"smiles": "O=C(NOC[C@H](O)CO)c1ccc(F)c(F)c1Nc1ccc(I)cc1F", "time to death of most cells in well": "> 7"}
{"smiles": "CS(=O)(=O)CCNCc1ccc(-c2ccc3ncnc(Nc4ccc(OCc5cccc(F)c5)c(Cl)c4)c3c2)o1", "note": "[Lapatinib]", "time to death of most cells in well": "> 7"}
{"smiles": "c1cncc(CN2CCC(n3ncc4c(N5CCOCC5)nc(-c5ccc6[nH]ccc6c5)nc43)CC2)c1", "time to death of most cells in well": 4}
{"smiles": "O=C1NC(=O)/C(=C/c2ccc(-c3ccc(F)cc3O)o2)S1", "time to death of most cells in well": "> 7"}
{"smiles": "O=C(Nc1nc2cccc(-c3ccc(CN4CCS(=O)(=O)CC4)cc3)n2n1)C1CC1", "note": "[Filgotinib (GLPG0634)]", "time to death of most cells in well": "> 7"}
{"smiles": "Cc1cc(C)c(/C=C2\\C(=O)Nc3ccccc32)[nH]1", "note": "[Semaxanib (SU5416)]", "time to death of most cells in well": "> 7"}
{"smiles": "CN1CCN(c2ccc3nc(-c4c(N)c5c(F)cccc5[nH]c4=O)[nH]c3c2)CC1", "note": "[Dovitinib (TKI-258, CHIR-258)]", "time to death of most cells in well": "> 7"}
{"smiles": "COc1cc2nccc(Oc3ccc(NC(=O)C4(C(=O)Nc5ccc(F)cc5)CC4)cc3)c2cc1OC", "note": "[Cabozantinib malate (XL184)]", "time to death of most cells in well": "> 7"}
{"smiles": "CN(C)C/C=C/C(=O)Nc1cc2c(Nc3ccc(F)c(Cl)c3)ncnc2cc1O[C@H]1CCOC1", "note": "[Afatinib (BIBW2992)]", "time to death of most cells in well": 4}
{"smiles": "Cc1cc(CS(=O)(=O)c2ccccc2)cc(OCc2ccc(CN3CCC[C@@H]3CO)cc2)c1", "time to death of most cells in well": "> 7"}
{"smiles": "C=CC(=O)Nc1cccc(Nc2nc(Nc3ccc(OCCOC)cc3)ncc2F)c1", "time to death of most cells in well": "> 7"}
{"smiles": "Cc1ccc(NC(=O)c2ccc(CN3CCN(C)CC3)cc2)cc1Nc1nc(-c2cccnc2)cs1", "note": "[Masitinib (AB1010)]", "time to death of most cells in well": 6}
{"smiles": "CC[C@@](C)(Nc1ccnc(-c2c[nH]c3ncccc23)n1)C(=O)NCC(F)(F)F", "note": "[Decernotinib (VX-509)]", "time to death of most cells in well": "> 7"}
{"smiles": "CC(C)CC(NC(=O)C(Cc1ccccc1)NC(=O)C(CCC(N)=O)NC(=O)C(Cc1ccc(O)cc1)NC(=O)C(C)NC(=O)CNC(=O)C(CCCCN)NC(=O)C(Cc1c[nH]c2ccccc12)NC(=O)C(NC(=O)C(Cc1c[nH]c2ccccc12)NC(=O)C(CCCCN)NC(=O)CNC(=O)C(CC(N)=O)NC(=O)C(CCC(=O)O)NC(=O)C(Cc1c[nH]c2ccccc12)NC(=O)C(NC(=O)C(Cc1c[nH]c2ccccc12)NC(=O)C(CO)NC(=O)CNC(=O)C1CCCN1C(=O)C(Cc1c[nH]c2ccccc12)NC(=O)C(CCC(N)=O)NC(=O)C(Cc1ccccc1)NC(=O)CNC(=O)C(N)Cc1c[nH]cn1)C(C)O)C(C)O)C(=O)NC(CCCCN)C(=O)NCC(=O)NCC(=O)NCC(=O)NCC(=O)NC(CO)C(=O)NC(CCCNC(=N)N)C(=O)NC(CCCNC(=N)N)C(=O)NC(CCCNC(=N)N)C(=O)NC(CCCNC(=N)N)C(=O)NC(CCCNC(=N)N)C(=O)NC(CCCNC(=N)N)C(=O)NC(CCCNC(=N)N)C(=O)NC(CCCNC(=N)N)C(=O)NC(CCCNC(=N)N)C(=O)O", "note": "(stereo not drawn)", "time to death of most cells in well": "> 7"}
{"smiles": "COc1cccc(-c2cc(=O)c3ccccc3o2)c1N", "time to death of most cells in well": "> 7"}
{"smiles": "CN(c1ccccc1CNc1nc(Nc2ccc3c(c2)CC(=O)N3)ncc1C(F)(F)F)S(C)(=O)=O", "time to death of most cells in well": "> 7"}
{"smiles": "CC(C)Nc1cc(-c2c[nH]c(C(=O)N[C@H](CO)c3cccc(Cl)c3)c2)c(Cl)cn1", "time to death of most cells in well": "> 7"}
{"smiles": "N#Cc1c(O)c2c(-c3ccc(-c4ccccc4O)cc3)csc2[nH]c1=O", "time to death of most cells in well": "> 7"}
{"smiles": "CN1CCC(COc2cnc(-c3cccc(Cn4nc(-c5cccc(C#N)c5)ccc4=O)c3)nc2)CC1", "time to death of most cells in well": "> 7"}
{"smiles": "Nc1ncnc2c1c(-c1cnc3[nH]ccc3c1)nn2C1CCCC1", "time to death of most cells in well": "> 7"}
{"smiles": "CCN(C)S(=O)(=O)Nc1ccc(F)c(C(=O)c2c[nH]c3ncc(-c4cnc(C5CC5)nc4)cc23)c1F", "time to death of most cells in well": "> 7"}
{"smiles": "COc1cccc2cc(-c3nc([C@H]4CC[C@H](C(=O)O)CC4)n4ncnc(N)c34)[nH]c12", "time to death of most cells in well": "> 7"}
{"smiles": "CN1CCN(c2ccc(-c3ccncc3-c3cc(F)c(O)c(F)c3)cc2)CC1", "time to death of most cells in well": "> 7"}
{"smiles": "C#Cc1cccc(Nc2ncnc3cc4c(cc23)OCCOCCOCCO4)c1", "note": "[Icotinib]", "time to death of most cells in well": "> 7"}
{"smiles": "COc1cc2c(Oc3ccc(NC(=O)C4(C(=O)Nc5ccc(F)cc5)CC4)cc3F)ccnc2cc1OCCCN1CCOCC1", "time to death of most cells in well": 3.5}
{"smiles": "CCN(CC)CCNC(=O)c1c(C)[nH]c(/C=C2\\C(=O)Nc3ccc(F)cc32)c1C", "note": "[Sunitinib Malate]", "time to death of most cells in well": 3}
{"smiles": "CC(C)(C)c1cc(C=C(C#N)C#N)cc(Br)c1O", "time to death of most cells in well": "> 7"}
{"smiles": "C[C@H](NC(=O)/C(C#N)=C/c1cccc(Br)n1)c1ccccc1", "time to death of most cells in well": "> 7"}
{"smiles": "CO[C@H]1C[C@@H]2CC[C@@H](C)[C@@](O)(O2)C(=O)C(=O)N2CCCC[C@H]2C(=O)O[C@H]([C@H](C)C[C@@H]2CC[C@@H](OP(C)(C)=O)[C@H](OC)C2)CC(=O)[C@H](C)/C=C(\\C)[C@@H](O)[C@@H](OC)C(=O)[C@H](C)C[C@H](C)/C=C/C=C/C=C/1C", "note": "[Ridaforolimus (Deforolimus, MK-8669)]", "time to death of most cells in well": "> 7"}
{"smiles": "Oc1ccc2ccccc2c1SSc1c(O)ccc2ccccc12", "time to death of most cells in well": "> 7"}
